The campaign covered roughly 48,000 compounds. About 550 (1.1%) were called active. Inconclusive results (about 4%) are left out. Rule as the data show it: active = potency below about 15 µM; inconclusive = mostly about 16 µM to 33 µM; inactive = weaker than that. The list shows a part of the results.
Potency is read from the fitted curve at half-maximal effect.

Sequence of UniProt P04062 (P04062 whole entry, looked up): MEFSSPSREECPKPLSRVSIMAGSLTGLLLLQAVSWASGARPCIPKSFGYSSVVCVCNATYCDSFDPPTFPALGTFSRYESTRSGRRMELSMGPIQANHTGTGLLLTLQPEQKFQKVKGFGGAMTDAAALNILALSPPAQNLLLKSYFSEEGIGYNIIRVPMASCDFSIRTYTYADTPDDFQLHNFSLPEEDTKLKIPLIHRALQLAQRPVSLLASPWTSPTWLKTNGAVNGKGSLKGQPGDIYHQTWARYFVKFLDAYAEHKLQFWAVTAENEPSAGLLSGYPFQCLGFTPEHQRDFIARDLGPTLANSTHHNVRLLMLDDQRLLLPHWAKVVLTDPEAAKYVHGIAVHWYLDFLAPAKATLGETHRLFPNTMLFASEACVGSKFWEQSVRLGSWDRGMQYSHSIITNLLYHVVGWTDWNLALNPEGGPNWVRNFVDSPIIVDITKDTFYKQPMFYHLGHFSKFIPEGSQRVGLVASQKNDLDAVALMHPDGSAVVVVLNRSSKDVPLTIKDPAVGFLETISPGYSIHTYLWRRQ

The target of this experiment is Lysosomal acid glucosylceramidase (Homo sapiens) (UniProt P04062). Put plainly: Glucocerebrosidase.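 Also: the screen sought inhibitors.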 To be noted: purified enzyme, resorufin glucoside fluorescence (screen aimed at inhibitors), 20 min. In short, it runs like this:
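Normal human glucocerebrosidase (0.2 nM final) was assayed with resorufin β-D-glucopyranoside (30 uM final) in 50mM citric acid/KH2PO4, 10mM sodium taurocholate, 0.01% tween-20, pH 5.9. Compounds were titrated; fluorescence (Ex 548, Em 600) read after 20 min at RT.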
On to `CC(=O)NC(CCS(C)(=O)=O)C(=O)Nc1cccc(C(C)=O)c1` (centres undefined), for which the Potency is inactive: > 76.9 µM.

Consider `CSc1nsc(SC)c1NC(=O)Nc1ccccn1`, for which the Potency was inactive: > 76.9 µM.

In the case of `COc1ccc(-c2cn3cc(Cl)ccc3n2)cc1OC`, the Potency is active: 2.83 µM.

As for `O=C(OCCN=C1NS(=O)(=O)c2ccccc21)c1cccnc1`, the Potency was inactive: > 76.9 µM.

Turning to `COC(=O)c1c(-c2cccc(C)c2)csc1N`, the Potency is inactive: > 76.9 µM.

With `CCCN(CCC)S(=O)(=O)c1ccc(C(=O)Nc2nnc(-c3cc(OC)cc(OC)c3)o2)cc1`, the Potency is inactive: > 76.9 µM.

For `CN(C)c1nc(NCc2ccccc2)nc(Oc2ccc(=O)[nH]n2)n1`, the Potency was inactive: > 76.9 µM.

`CCOC(=O)N1CCN(C(=O)c2ccc3nc(C)sc3c2)CC1`: the Potency is inactive: > 76.9 µM.

As to `Cc1occc1C(=O)NC(C)c1ccc2c(c1)OCO2` (centres undefined), the Potency was inactive: > 76.9 µM.

Turning to `CCOc1cccc(C(=O)Nc2nc(-c3ccc(S(=O)(=O)N4CCOCC4)cc3)cs2)c1`, the Potency was inactive: > 76.9 µM.

Turning to `O=C(NCC1CCCO1)c1cc(-c2ccncc2)nc2ccc(S(=O)(=O)N3CCOCC3)cc12` (centres undefined), the Potency was inactive: > 76.9 µM.

Take `COc1ccc(CC(=O)Nc2ccc(-c3nnc(-c4ccccc4)o3)cc2)cc1OC`: the Potency was inactive: > 76.9 µM.

Consider `c1csc(-c2ncc3ccccn23)c1`, for which the Potency is inactive: > 76.9 µM.

On to `CC(=O)Nc1ccc(NC(=O)C2CCCN(c3nnc(-n4cccc4)s3)C2)cc1` (centres undefined), for which the Potency was inactive: > 76.9 µM.

Turning to `CC(=O)N1CCc2cc(Br)cc(S(=O)(=O)NCCCN3CCC(C)CC3)c21`, the Potency was inactive: > 76.9 µM.

As for `O=S(=O)(c1ccc(-c2ccccc2)cc1)N1CCOCC1`, the Potency was inactive: > 76.9 µM.

Consider `COC(=O)c1sccc1NC(=O)Cn1nnc(-c2ccc(C)cc2)n1`, for which the Potency is active: 15.2 µM.

On to `CC1(C)Cc2c(sc3nc(SCC(=O)O)[nH]c(=O)c23)CO1`, for which the Potency is inactive: > 76.9 µM.

`O=C(Nc1cccc2nsnc12)c1ccc2c(c1)OCCO2`: the Potency is inactive: > 76.9 µM.

As for `CCOC(=O)c1c(NC(=O)c2ccc(S(=O)(=O)N3CCOCC3)cc2)sc2c1CCN(C)C2`, the Potency result was “inactive”.

For `Cc1cc(NC(=O)CCC(=O)N(c2ccccc2)C(C(=O)NC2CCCC2)c2ccncc2)no1` (centres undefined), the Potency is inactive: > 76.9 µM.

On to `Cc1ccc(C(C)C)c(OCC(=O)Nc2ccc(N3CCN(S(C)(=O)=O)CC3)cc2)c1`, for which the Potency was inactive: > 76.9 µM.

Take `COc1ccc(OCc2nnc(SC(C)C(=O)Nc3nccs3)n2-c2ccccc2)cc1` (centres undefined): the Potency was inactive: > 76.9 µM.

`Cc1ccc(NC(=O)CSc2nnc(Cn3cnc4ccccc43)o2)cc1`: the Potency is inactive: > 76.9 µM.

Regarding `COC(=O)c1ccccc1NC(=O)CN1C(=O)CSC1=O`, the Potency was inactive: > 76.9 µM.

Turning to `Cc1ccc(-c2nnc(SC(C)C#N)n2N)cc1` (centres undefined), the Potency is inactive: > 76.9 µM.

As for `Cc1cc(C)cc(N2C(=O)N(c3ccccc3C)C3CS(=O)(=O)CC32)c1` (centres undefined), the Potency is inactive: > 76.9 µM.

As to `CC(C)(C)NC(=O)NC(=O)COC(=O)Cn1c(C(F)(F)F)nc2ccccc21`, the Potency is inactive: > 76.9 µM.

In the case of `Nc1nc(COc2ccc3ccccc3c2)cs1`, the Potency is inactive: > 76.9 µM.

`O=C(Nc1ccccn1)Nc1cccs1`: the Potency was inactive: > 76.9 µM.

For `O=C(NCc1ccccn1)C1CCCN(Cc2cnn(-c3ccccc3)c2-n2cccc2)C1` (centres undefined), the Potency was inactive: > 76.9 µM.

For `COC(=O)CC(C(=O)Nc1cc(C(=O)OC)cc(C(=O)OC)c1)N1CCN(C)CC1` (centres undefined), the Potency was inactive: > 76.9 µM.

With `CCN(CC)CCCN1C(=O)C(=O)/C(=C(/O)c2ccc3c(c2)OCCO3)C1c1ccc(C)o1` (centres undefined), the Potency was inactive: > 76.9 µM.

In the case of `O=C(CCn1nc(-c2ccc(Cl)cc2)ccc1=O)NCCCN1CCCCCC1`, the Potency was inactive: > 76.9 µM.

As for `COc1ccc(NC(=O)CSc2nnc(Cc3cccn3C)n2-c2ccc(C)cc2)cc1OC`, the Potency is inactive: > 76.9 µM.

Regarding `Cc1ccc(SCCCn2cncn2)cc1`, the Potency was inactive: > 76.9 µM.

Take `CCOC(=O)C1CCCN(C(=O)C2CCN(Cc3nc(-c4ccc(Cl)cc4)oc3C)CC2)C1` (centres undefined): the Potency is inactive: > 76.9 µM.

Consider `CCOc1ccc(OCC)c(S(=O)(=O)N2CCCCC2)c1`, for which the Potency was inactive: > 76.9 µM.

As for `CC(C)OC(=O)CSc1nnc(-c2ccc(Cl)cc2Cl)n1N`, the Potency was inactive: > 76.9 µM.

In the case of `O=C(CCn1c(=O)c2ccccc2n(Cc2cc(=O)n3ccccc3n2)c1=O)NCc1ccco1`, the Potency was inactive: > 76.9 µM.

Regarding `COc1ccccc1NC(=O)N(Cc1ccccc1)c1ccccn1`, the Potency is inactive: > 76.9 µM.

Take `COCCn1nnnc1C(c1cc2ccc(OC)cc2[nH]c1=O)N1CCc2ccccc2C1` (centres undefined): the Potency is inactive: > 76.9 µM.

As for `O=C1CCCC(O)=C1C=Nc1ccc2c(c1)oc1ccccc12`, the Potency was inactive: > 76.9 µM.

`Cn1c(=O)c2cc(S(=O)(=O)NCCC(=O)NCC3CCCO3)ccc2n(C)c1=O` (centres undefined): the Potency is inactive: > 76.9 µM.

On to `O=C(CN(CCc1ccccc1)C(=O)CNS(=O)(=O)c1ccc(F)cc1)NCC1CCCO1` (centres undefined), for which the Potency is inactive: > 76.9 µM.

Regarding `CCCc1cc(=O)n2[nH]c(SCc3ccccc3)nc2n1`, the Potency is inactive: > 76.9 µM.

As for `O=C(CN(Cc1ccco1)C(=O)CCC(=O)Nc1ccccn1)NCCc1ccccc1`, the Potency was inactive: > 76.9 µM.

For the compound `COc1cc2[nH]c(=O)n(CCCCCC(=O)NCCCN3CCCC3=O)c(=O)c2cc1OC`, the Potency is inactive: > 76.9 µM.

Consider `Cc1ccc(NC(=O)CS(=O)CC(=O)NC2CCN(Cc3ccccc3)CC2)c(C)c1` (centres undefined), for which the Potency is inactive: > 76.9 µM.

Turning to `Cc1ccc(C)c(NC(=O)C2CC(=O)N(C(C)C)C2)c1` (centres undefined), the Potency was inactive: > 76.9 µM.

Take `O=C(CSc1oc(-c2ccco2)nc1S(=O)(=O)c1ccc(F)cc1)NCC1CCCO1` (centres undefined): the Potency entry was “inactive”.

`CCCCn1c(SCC(=O)Nc2cccc(OC)c2)nc2ccc(N3CCOCC3)cc2c1=O`: the Potency is inactive: > 76.9 µM.

For `O=C(CSc1nc(-c2ccc(F)cc2)cs1)N1CCN(C(=O)c2ccco2)CC1`, the Potency is inactive: > 76.9 µM.

For `Cc1cc(C)nc(SC2=CS(=O)(=O)c3ccccc32)n1`, the Potency was inactive: > 76.9 µM.

Regarding `CC(=O)NC(Cc1ccccc1F)C(=O)NC1CCN(C(=O)c2cnccn2)CC1` (centres undefined), the Potency was inactive: > 76.9 µM.

In the case of `COc1ccccc1NC(=O)c1sc2nc(-c3ccco3)ccc2c1N`, the Potency is inactive: > 76.9 µM.

Regarding `COc1cc(C)nc(NS(=O)(=O)c2ccc(C)cc2)n1`, the Potency was inactive: > 76.9 µM.

Turning to `COC(=O)c1ccc2c(=O)n(CC3CCCO3)c(=S)[nH]c2c1` (centres undefined), the Potency was inactive: > 76.9 µM.

In the case of `CCn1c(Cc2ccccc2)nnc1SCC(=O)Nc1ccc(N2CCOCC2)c(Cl)c1`, the Potency is inactive: > 76.9 µM.

As for `O=C(CCn1c(=O)sc2ccccc21)NCCCn1ccnc1`, the Potency was inactive: > 76.9 µM.

Regarding `Cc1ccc(-n2nc3c(c2NC(=O)c2ccc(Br)o2)CSC3)c(C)c1`, the Potency is inactive: > 76.9 µM.

As for `O=C(Cn1nc(Cl)nc1Cl)Nc1ccccc1`, the Potency was inactive: > 76.9 µM.

As for `COc1cc(NC(=O)Nc2ccccc2OC)c(OC)cc1NC(=O)CN1CCCCC1`, the Potency was inactive: > 76.9 µM.

With `N=c1c(C(=O)NC2CCCC2)cc2c(=O)n3ccccc3nc2n1CCN1CCOCC1`, the Potency was inactive: > 76.9 µM.

Consider `C=CCn1c(SCC(=O)Nc2ccccc2OC)nnc1-c1ccccn1`, for which the Potency was inactive: > 76.9 µM.

Take `COC(=O)Cc1csc(Nc2c(C)n(C)n(-c3ccccc3)c2=O)n1`: the Potency is inactive: > 76.9 µM.

Regarding `CCCCn1nnnc1NCc1ccc(N2CCCC2)cc1`, the Potency was inactive: > 76.9 µM.

`Cc1ccc(C)n1CCN1CCN(CC(=O)Nc2ccc(S(N)(=O)=O)cc2)CC1`: the Potency is inactive: > 76.9 µM.

`COc1ccc(OCc2cccc(C(=O)O)c2)cc1`: the Potency is inactive: > 76.9 µM.

As to `CC(C)COCC1CC2(CC(C)C(=O)CC2=O)C(=O)O1` (centres undefined), the Potency is inactive: > 76.9 µM.

Turning to `CCOc1ccccc1C1CC(=O)Nc2cc3c(cc21)OCCO3` (centres undefined), the Potency is inactive: > 76.9 µM.

In the case of `COCCCN1CN(S(=O)(=O)c2ccc(Cl)cc2)c2nc3ccccc3nc21`, the Potency result is “inactive”.

For `CSc1nc(C)cc(Oc2ccc(=O)n(C)n2)n1`, the Potency is inactive: > 76.9 µM.

Consider `CCS(=O)(=O)N1CCCC(C(=O)NCCCOC)C1` (centres undefined), for which the Potency is inactive: > 76.9 µM.

On to `CCOC(=O)c1cnc(SCc2ccc(C)cc2)nc1N`, for which the Potency was inactive: > 76.9 µM.

As for `CCCCn1c(SCc2nnc(-c3ccccc3)o2)nc2c1c(=O)n(C)c(=O)n2C`, the Potency is inactive: > 76.9 µM.

For the compound `CN(C)c1ccc(/C=C/c2cc[n+]([O-])cc2)cc1`, the Potency was inactive: > 76.9 µM.

For the compound `O=C1CCc2cc(S(=O)(=O)NCCC(=O)N3CCN(c4cccc(Cl)c4)CC3)ccc2N1`, the Potency was inactive: > 76.9 µM.

As for `COc1ccc(CN2CC(C(=O)NCCCN3CCN(C)CC3)CC2=O)cc1` (centres undefined), the Potency was inactive: > 76.9 µM.

As to `CCn1c(N)c(C(=O)NC)sc1=S`, the Potency was inactive: > 76.9 µM.

Turning to `O=C(NC1CCCC1)c1cccnc1N1CCCCCC1`, the Potency was inactive: > 76.9 µM.

On to `Cc1ccc(N=C(c2cccs2)N2CCOCC2)cc1`, for which the Potency was inactive: > 76.9 µM.

As to `CCN(CC)S(=O)(=O)c1cccc(-c2nnc(SCCOc3ccc(Cl)cc3)o2)c1`, the Potency was inactive: > 76.9 µM.

As to `C=CCOC(=O)Nc1ccc(Cl)cc1NC(=O)OCC=C`, the Potency was inactive: > 76.9 µM.

`COC(=O)C1C(=O)C2=C(CC1C)NC(=O)CC2c1ccc(O)c(OC)c1` (centres undefined): the Potency was inactive: > 76.9 µM.

With `COC(=O)NC1CSCC1OC(=O)CCN1C(=O)c2ccccc2C1=O` (centres undefined), the Potency was inactive: > 76.9 µM.

With `O=C(CN1CCN(C(=O)c2ccco2)CC1)Nc1ccc(Cl)c(C(F)(F)F)c1`, the Potency is inactive: > 76.9 µM.

Regarding `COc1ccc(C)cc1NC(=O)CN(C)S(=O)(=O)c1cccs1`, the Potency was inactive: > 76.9 µM.

Take `CCn1c(N)c(C(=O)NCc2cccnc2)sc1=S`: the Potency was inactive: > 76.9 µM.
